Source: PubChem BioAssay (NCATS)
The inconclusive results got no clear call from the source; some entries with a clear call stand among them for comparison. A potency beside an inconclusive call is a rough fit, not a confirmed value. The source made the active and inactive calls. Calls follow the shape of the dose curve; as a rule, active = well fitted inhibition curve with a large enough effect; inconclusive = small, poorly fitted or top-dose-only effect; inactive = no such curve, though single readings can be large or run the other way.

Assay: qHTS to identify inhibitors of the type 1 interferon - major histocompatibility complex class I in skeletal muscle: primary screen against the NCATS Mechanism Interrogation Plate v5.0 (MIPE) Libary (AID 1347411); also: nearly all actives have a fitted effect of over 65% in size;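 as to activity change, negative = inhibition: plate controls were vehicle for no effect and reference inhibitor for full effect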
Conditions: iHSKM cells + IFN-b, HiBiT-tagged MHC-I luminescence, 24 h; activity change, negative = inhibition: at 45.8 µM (top of the series)
Method in brief: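 Immortalized human myoblasts (C25cl48) with HiBit knocked into endogenous HLA-B*08:01 were stimulated with 4 ng/ml IFN-beta and given compounds in 11-point 1:3 titration from 46 uM. After 24 h at 37 C, lytic HiBiT luminescence was read.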
Potency is read from the fitted curve at half-maximal effect; tags tell the direction and shape of the fitted curve.

SMILES	Potency	activity change, negative = inhibition
C[C@@H]1CN(Cc2ccc(F)cc2)[C@@H](C)CN1C(=O)c1cc2c(C(=O)C(=O)N(C)C)cn(C)c2cc1Cl	inactive	
OCCC#Cc1nc(-c2ccc(F)cc2)c(-c2ccncc2)n1CCCc1ccccc1	inconclusive: 7.39 µM [inhibitor, partial curve, poor fit]	
CC1(C)Cc2c(sc(NC(=S)NC(=O)c3ccccc3)c2C(=O)O)CO1		inconclusive: -33.6% [inhibitor]
Cc1csc(NC(=O)c2sc3nc4c(c(C(F)(F)F)c3c2N)CCC4)n1	inconclusive: 26.2 µM [inhibitor, partial curve, poor fit]	
COCCn1c2c([n+](Cc3cnccn3)c1C)C(=O)c1ccccc1C2=O	active: 2.34 µM	
Cc1ccc(F)c(NC(=O)Nc2ccc(-c3cccc4[nH]nc(N)c34)cc2)c1	inconclusive: 5.23 µM [inhibitor, partial curve, poor fit]	
C[C@@H](O[C@H]1OCCN(Cc2n[nH]c(=O)[nH]2)[C@@H]1c1ccc(F)cc1)c1cc(C(F)(F)F)cc(C(F)(F)F)c1	inconclusive: 29.4 µM [inhibitor, partial curve]	
CCNC(=O)c1noc(-c2cc(C(C)C)c(O)cc2O)c1-c1ccc(CN2CCOCC2)cc1	active: 0.0415 µM	
Cc1ccccc1C(C(=O)NC1CCCCC1)N(C(=O)Cn1ccnc1C)c1cccc(F)c1 (centres undefined)	inconclusive: 20.8 µM [inhibitor, single point]	
